Here are results for 40 compounds from the supplement of paper PMC12889115.

The structures appear in SMILES notation. This is one part of the list. No stated cut-off is given here; in the data, active = 25% or less and inactive = the rest. Most values come without repeats; read them as rough.
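Further: compounds tested were the hits of an earlier 50 µM broth growth screen of a drug-like diversity library run with polymyxin B.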

In the assay the test system is Salmonella enterica serovar Typhimurium SL1344. The experiment in a line: intramacrophage bacterial GFP load (SAFIRE), percent of DMSO control (% of DMSO); higher = more intracellular bacteria (less inhibition). The settings on record: 25 µM; system: infected RAW 264.7 macrophages. On the procedure:
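Secondary screen of the 553 primary hits at 25 µM. (i) S. Typhimurium SL1344 grown in Mueller-Hinton broth with 0.5 µg/mL polymyxin B, OD600 read after 18 h. (ii) SAFIRE assay: RAW 264.7 macrophages infected with S. Typhimurium sifB::gfp (MOI 30); compound added 2 h post-infection; cells fixed at 18 h; GFP-positive pixel fraction per macrophage imaged by confocal microscopy and expressed as % of DMSO control.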
Turning to `CCCCN(C)C(=O)c1nc2ccccn2c1CNCc1c(OC)ccc2ccccc12`, the “intramacrophage bacterial GFP load” value was active: 5.78.
As for `COc1cc(Cl)c(CN2CCOc3ccc(CN4C[C@@H](C)O[C@@H](C)C4)cc3C2)cc1OC`, the figure is active: 1.94.
As for `CCOC(=O)C1(Cc2ccccc2C(F)(F)F)CCN(Cc2ccc(COC)o2)CC1`, the figure is active: 6.24.
`Cc1ccccc1-c1cnc(-c2ccncc2)nc1C1CCCN(Cc2ccc(F)c(F)c2)C1` (stereo not given): the “intramacrophage bacterial GFP load” value was active: 13.8.
As to `COc1ccc(-c2cnnc(NCCc3ccccc3F)n2)c(OC)c1`, the “intramacrophage bacterial GFP load” value was inactive: 82.2.
As for `Cc1ccccc1-c1noc(-c2ccc(N[C@H]3CC[C@H](O)CC3)nc2)n1`, the figure is inactive: 173.
Turning to `CN(C(=O)c1ccccn1)C(Cc1ccccc1)C1CCN(C(=O)/C=C/c2ccccc2)CC1` (stereo not given), the “intramacrophage bacterial GFP load” value was inactive: 44.6.
With `CCCCn1c(CN2CCCCC2c2ccc(F)cc2)cnc1S(=O)(=O)CC` (stereo not given), the “intramacrophage bacterial GFP load” value was inactive: 34.8.
Then `COc1ccc(-c2nc(CN(Cc3ccccc3)C[C@@H]3CCC(=O)N3)c(C)o2)cc1C`, with inactive: 47.4; and `Cc1ccccc1-c1nc(CN2CCOc3ccc(Cl)cc3C2)c(C)o1`, with inactive: 33.2.
For `COCCCN1C(=O)CC(CC(=O)N2CCCC(c3ccccc3C)C2)(c2ccccc2Cl)C1=O` (stereo not given), the “intramacrophage bacterial GFP load” value was inactive: 69.1.
As for `Cc1cc2c(c(-c3cnccn3)c1)OC(CNC(=O)/C=C/c1cccs1)C2` (stereo not given), the figure is inactive: 114; as for `CN(Cc1ccccc1)C1(C(=O)N2CCC[C@H]2CO)Cc2ccccc2C1`, active: 24.
As to `COc1cccc(C2c3[nH]c4ccccc4c3CCN2C(=O)c2nc(C)c[nH]2)c1` (stereo not given), the “intramacrophage bacterial GFP load” value was inactive: 69.7.
As for `CN(C(=O)CC1(c2ccccc2Cl)CC(=O)N(C2CCCC2)C1=O)C(C1CC1)C1CC1` (stereo not given), the figure is inactive: 84.5; as for `O=C(C1CC12CCCC2)N1CCc2[nH]nc(-c3ccc4c(c3)OCO4)c2C1` (stereo not given), inactive: 76.5.
For `O=C(CC(c1ccccc1)c1ccc2c(c1)OCO2)N1CCCO1` (stereo not given), the “intramacrophage bacterial GFP load” value is inactive: 131.
Then `CC(c1ccon1)N(C)C(=O)CC1(c2ccc(-c3ccccc3)cc2)CC(=O)N(C)C1=O` (stereo not given), with inactive: 86.8; and `COC(c1ccc2c(c1)CN(C(=O)c1cccc(C#CC(C)(C)O)c1)CCO2)C1CCCCC1` (stereo not given), with inactive: 54.9; and `COc1ccc(-c2ccccc2NC(=O)C2CCCN2CCCC(F)(F)F)cc1` (stereo not given), with inactive: 26.
As to `Cc1ccc(CN(C)Cc2cnc(S(=O)(=O)C(C)C)n2CCc2ccccc2)cc1`, the “intramacrophage bacterial GFP load” value is inactive: 95.6.
Take `Cc1cccc(-c2cnc(-c3ccncc3)nc2C2CCN(C(=O)c3cc(CC(C)C)on3)CC2)c1`: the “intramacrophage bacterial GFP load” value was inactive: 60.8.
For `Cc1ccccc1CNC(=O)c1coc(COc2cccc(F)c2)n1`, the “intramacrophage bacterial GFP load” value is inactive: 136.
As for `COc1cccc(-c2ccc(NC(=O)C3CCCN3C(=O)C3(C)CC3)cc2)c1` (stereo not given), the figure is inactive: 68.4; as for `O=C(Nc1cccc(-n2cccn2)c1)C1CCCN1C1Cc2ccccc2C1` (stereo not given), inactive: 69.3.
Consider `CN(CC1CCCCO1)C(=O)c1cn(Cc2ccc(Cl)cc2)nn1` (stereo not given), for which the “intramacrophage bacterial GFP load” value is inactive: 41.2.
Then `COc1ccc2c(c1)NC(=O)C2CC(=O)N(Cc1ccncc1)Cc1cccc(OCCc2ccc(F)cc2)c1` (stereo not given), with inactive: 62.3; and `O=C(c1cccc(F)c1)N(Cc1ccncc1)Cc1cccc(OCCc2ccc(F)cc2)c1`, with inactive: 104.
As for `COCCCN1C(=O)CC(CC(=O)N2CCC(c3ccc(F)cc3)C2)(c2ccccc2Cl)C1=O` (stereo not given), the figure is inactive: 81.2; as for `O=C(/C=C/c1cccs1)N(Cc1ccncc1)Cc1cccc(OCCc2ccc(F)cc2)c1`, inactive: 96.
On to `Cc1c[nH]c(CN(C)C(=O)C2(N3C[C@@H](C)O[C@@H](C)C3)Cc3ccccc3C2)n1`, for which the “intramacrophage bacterial GFP load” value is inactive: 88.8.
With `O=C(Nc1cnn(-c2ccc(C(=O)N3CCN(c4ccccc4Cl)CC3)cc2)c1)C1CCOCC1`, the “intramacrophage bacterial GFP load” value was inactive: 99.1.
On to `COCc1ccc(C(=O)N2CCCC(CCc3ccc(F)c(F)c3)C2)o1` (stereo not given), for which the “intramacrophage bacterial GFP load” value is inactive: 51.1.
Then `CN(Cc1nccs1)C(=O)CC(c1ccccc1)c1cccc(Cl)c1` (stereo not given), with inactive: 72.2.
Then `O=C(c1ccc(Cn2cnnn2)cc1)N1CCCC(CCc2ccccc2)C1` (stereo not given), with inactive: 102.
As for `O=C(CC1(c2cccc(F)c2)CC(=O)N(C2CCCC2)C1=O)N1CCC(C(O)c2cccs2)CC1` (stereo not given), the figure is inactive: 62.1.
For `CCN1C(=O)CC(CC(=O)N2CCCC(c3ccccc3)CC2)(c2cccc(C(F)(F)F)c2)C1=O` (stereo not given), the “intramacrophage bacterial GFP load” value was inactive: 100.
In the case of `O=C(NC(c1ccccn1)C(F)(F)F)c1cn(C2CCCCC2)nn1` (stereo not given), the “intramacrophage bacterial GFP load” value is inactive: 83.6.
Then `CC(C)CS(=O)(=O)c1ncc(CN(C)Cc2ccccc2)n1Cc1ccccc1`, with inactive: 73.8.
Then `CN(C)C1(C(=O)N2CCCC2c2ccc(F)cc2)Cc2ccccc2C1` (stereo not given), with inactive: 34.2.
